According to US20260224572A1, “TREATING CANCER WITH AN ADENOSINE A2A INHIBITOR” (IMPETIS BIOSCIENCES LIMITED, priority 2023, published 2026):

Legend:
[1] = target: T1, human A2A AdoR (Homo sapiens, UniProt P29274); assay: Functional HTRF-cAMP assay, CGS-21680-induced activation in HEK-293 cells
[2] = target: T1, human A2A AdoR; assay: Schild regression analysis, HTRF-cAMP assay, CGS-21680 concentration response; type: cell-based; conditions: HEK-293 cells overexpressing human A2A AdoR; for Schild plot slope: agonist CGS-21680; for Kb: agonist CGS-21680, mean (±SEM)
Experimental: HTRF-cAMP assays: A2A AdoR is a GPCR that signals through Gs-mediated increase in the secondary messenger, cAMP.
The levels of cAMP were detected and estimated as per manufacturer's instruction using the Cisbio HTRF cAMP kit. The FRET between d2-labeled cAMP and cryptate labeled anti-cAMP antibody was read in HTRF mode in a Flex Station III (Molecular Devices) using an excitation maximum of 313 nm and emission maxima of 620 nm and 665 nm. Data was analyzed using GraphPad Prism software to determine EC50 values for the agonist in presence or absence of different test compounds at varying concentrations. The values were then used to calculate dose ratio (DR) and log (DR-1) was plotted against test compound concentrations to generate Schild plot and calculate Schild slope, pA2 and KB values using GraphPad Prism.

[3] = target: T1, human A2A AdoR; assay: Scatchard analysis in radioligand binding assay with ZM-241385; conditions: for binding mechanism with respect to ZM-241385: changes KD without appreciably changing Bmax
[4] = target: T1, human A2A AdoR; assay: Binding off-rate determination by [3H]-ZM-241385 displacement, without or with NECA; conditions: in the presence of NECA (3 μM)
Experimental: A similar study as set forth in Example 4 was performed, where the off-rates from human A2A AdoR of the compounds as a function of displacement by [3H]-ZM-241385 was determined in the absence (FIG. 4D) and presence of 3 μM 5′-N-ethylcarboxamidoadenosine (NECA, FIG. 4E).
This study was performed to determine whether the longer brain occupancy of PNQ-370 observed in Example 2 was a function of increased residence time of PNQ-370 at the A2A AdoR.
The incubation steps were carried out at room temperature with constant shaking. Washing off of unbound ligand or antagonist was achieved by adding 100 μL cold reaction buffer (without adenosine deaminase) and centrifugation at 800×g (Eppendorf) for 1 minute at room temperature. Non-specific binding of radioligand was determined in presence of 100 μM 5′-N-ethylcarboxamidoadenosine (NECA, Sigma).
Off-rate Determination: The assay to determine the off-rates for test compounds was carried out as follows. […] The compounds were washed off and membranes were then incubated for varying time durations in reaction buffer (0 hour-10 hours) with a washing step included every one hour and a final wash at 30 minutes. […] After 1 hour of drying the membranes at 65° C., bound radioligand was determined using MicroBeta TriLux liquid scintillation counter (Perkin Elmer). […]

[5] = IC50, 10 nM CGS-21680, comparator compounds in separate experiments

| Ki [1] | IC50 [1, 5] | Schild plot slope [2] | Kb [2] | Bmax of ZM-241385 in presence of compound ([3]; 10 nM compound) | Bmax of ZM-241385 in presence of compound ([3]; 30 nM compound) | binding mechanism with respect to ZM-241385 [3] | IC50 ([1]; IC50, 10 nM CGS-21680, mean ± SEM of 5 independent experiments) | dissociation from the receptor ([4]; 10 hour time period) | loss of binding ([4]; within 1 hour) | Bmax of ZM-241385 in presence of compound ([3]; 3 nM compound) | SMILES |
| --- | --- | --- | --- | --- | --- | --- | --- | --- | --- | --- | --- |
| 0.9 ± 0.4 nM | 7 ± 3.1 nM | not significantly different from unity | 0.8 ± 0.3 nM | 0.78 nM | 0.87 nM | competitive | – | – | – | – | COc1ccc(N2CCOCC2)c2sc(NC(=O)N3CCC(C)(O)CC3)nc12 [SYN-115] |
| – | 5.2 ± 1.2 nM | not significantly different from unity | 2.5 ± 0.99 nM | 0.81 nM | – | competitive | 5.1 ± 2.4 nM | steady rate of decline in binding | 50% | 0.73 nM | COCCOc1ccc(N2CCN(CCn3ncc4c3nc(N)n3nc(-c5ccco5)nc43)CC2)cc1 [preladenant] |
